This sample is rich in variants without activity.
B1: TPR 5TU (parent)
chain: GGAUCUUCUCGAUCUAACAAAAAAGACAAAUCUGCCACAAAGCUUGAGAGCAUCUUCGGAUGCAGAGGCGGCAGCCUUCGGUGGCGCGAUAGCGCCAACGUUCUCAACUAUGACACGCAAAACGCGUGCUCCGUUGAAUGGAGUUUAUCAUG

Variants of: B1
Experiment: polymerase ribozyme fitness, log enrichment relative to wild type (log ratio); higher = more active; in vitro selection for triplet polymerase activity
Summary of the method: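 Each subunit of a heterodimeric triplet polymerase ribozyme was represented by a PCR-built, transcribed mutant library that underwent triplicate single-round in vitro selection with frozen incubation at −7 °C. Extended constructs were recovered by gel excision, streptavidin-bead capture and RT-PCR, and Illumina sequencing of input and output libraries kept genotypes with ≥10 input reads and ≥1 read per output. Fitness is the logarithm of genotype enrichment relative to wild-type enrichment, from inverse-variance-weighted replicate averages, with a logarithm base of 2.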
With A26G U45A G67U the “polymerase ribozyme fitness (log ratio)” value was no more than -4.2. For G25U G50C A64G G68U G94A A106G, the “polymerase ribozyme fitness (log ratio)” value was no more than -4.2. With G25U C85U A91G G92C A107U U146A the “polymerase ribozyme fitness (log ratio)” value was no more than -4.2. In the case of A26U C38U C85A A91G U148A, the “polymerase ribozyme fitness (log ratio)” value is reported as no more than -4.2. In the case of A26C U44G A91U U145C, the “polymerase ribozyme fitness (log ratio)” value is reported as no more than -4.2. With G25U U61G A66C C87U A137G the “polymerase ribozyme fitness (log ratio)” value was no more than -4.2. For A26G C27G C87U U148A, the “polymerase ribozyme fitness (log ratio)” value was no more than -4.2. For A26C A91G G136C, the “polymerase ribozyme fitness (log ratio)” value was no more than -4.2. With A26U A49C the “polymerase ribozyme fitness (log ratio)” value was no more than -4.2. For G25U C95U C149G, the “polymerase ribozyme fitness (log ratio)” value was no more than -4.2. For A26U C36U U44A C57A G68C C118A U135G, the “polymerase ribozyme fitness (log ratio)” value was no more than -4.2. In the case of A26G A52G G62U G74C C99A G112U G143U C149A, the “polymerase ribozyme fitness (log ratio)” value is reported as no more than -4.2. With A26G A28U U102G G128U A150U the “polymerase ribozyme fitness (log ratio)” value was no more than -4.2. With A26C C96A A120G G124U the “polymerase ribozyme fitness (log ratio)” value was -2.02. For A26G U55G A89C, the “polymerase ribozyme fitness (log ratio)” value was no more than -4.2. For A26G A40C G42C A52G C54U C75U A121C, the “polymerase ribozyme fitness (log ratio)” value was no more than -4.2. For A26U A30G A60G G62C G92U G126A, the “polymerase ribozyme fitness (log ratio)” value was no more than -4.2. For G25U C35U G59U C95G C103U, the “polymerase ribozyme fitness (log ratio)” value was no more than -4.2. In the case of A26U A73U A91U C96G A137C, the “polymerase ribozyme fitness (log ratio)” value is reported as no more than -4.2. With G25U C57G G65U C87A C95A C108G the “polymerase ribozyme fitness (log ratio)” value was no more than -4.2. For A26G C69A C108U, the “polymerase ribozyme fitness (log ratio)” value was no more than -4.2. For G25U G50C U56A G65U U146C, the “polymerase ribozyme fitness (log ratio)” value was no more than -4.2. In the case of G25U A52C C63U G88C U127C, the “polymerase ribozyme fitness (log ratio)” value is reported as no more than -4.2. In the case of A26C G50A G74C U102G, the “polymerase ribozyme fitness (log ratio)” value is reported as no more than -4.2. With A26C A30U A41G A52U G124A the “polymerase ribozyme fitness (log ratio)” value was no more than -4.2. For A26G A30U C32G U44G G94A A106C G143U, the “polymerase ribozyme fitness (log ratio)” value was no more than -4.2. With A26C A52C C85A C96G C123U the “polymerase ribozyme fitness (log ratio)” value was no more than -4.2. In the case of A26C C76A C87U C103G C116U, the “polymerase ribozyme fitness (log ratio)” value is reported as no more than -4.2. In the case of A26C C32A U53G U101A A107G, the “polymerase ribozyme fitness (log ratio)” value is reported as no more than -4.2. With A26C C93G U139G G140U the “polymerase ribozyme fitness (log ratio)” value was -4.11. In the case of G25U A49G G58C G83A A138U U144A, the “polymerase ribozyme fitness (log ratio)” value is reported as no more than -4.2. In the case of A26U A40U C76A U77C C93G G124A, the “polymerase ribozyme fitness (log ratio)” value is reported as no more than -4.2. With G25C C116A G141C U146C the “polymerase ribozyme fitness (log ratio)” value was no more than -4.2. With A26G U44G the “polymerase ribozyme fitness (log ratio)” value was no more than -4.2. In the case of A26G A52C A91C, the “polymerase ribozyme fitness (log ratio)” value is reported as no more than -4.2. With A26C G68C C87A A89U C103A the “polymerase ribozyme fitness (log ratio)” value was no more than -4.2. For G25U G46A C57U C69A G128U A138U, the “polymerase ribozyme fitness (log ratio)” value was no more than -4.2. With G25U G83A C95A A138U U139C the “polymerase ribozyme fitness (log ratio)” value was no more than -4.2. For A26C G59U A60C C75U G80C U102A A115G A120C, the “polymerase ribozyme fitness (log ratio)” value was no more than -4.2. With A26C A52C the “polymerase ribozyme fitness (log ratio)” value was -3.22. For A26G A30G G50U U78G C87G C99U, the “polymerase ribozyme fitness (log ratio)” value was no more than -4.2. In the case of A26G C51U C96A A107U A121C C149G, the “polymerase ribozyme fitness (log ratio)” value is reported as no more than -4.2. In the case of A26C A29U C36G A73U G84U G94C A110U, the “polymerase ribozyme fitness (log ratio)” value is reported as no more than -4.2. With A26U A41U U61G A91U C93G U127A U130A A147C the “polymerase ribozyme fitness (log ratio)” value was no more than -4.2. For A26U A49C U56A G83U C85U, the “polymerase ribozyme fitness (log ratio)” value was no more than -4.2. For A26C C87A A91G A120U U139A, the “polymerase ribozyme fitness (log ratio)” value was no more than -4.2. With G25C G88A C95U C105U C116A G136U G143A the “polymerase ribozyme fitness (log ratio)” value was no more than -4.2. In the case of G25U A52U U56A C85A C118U U134G G141C, the “polymerase ribozyme fitness (log ratio)” value is reported as no more than -4.2. With A26G A52C G59C A64C the “polymerase ribozyme fitness (log ratio)” value was no more than -4.2. With A26U C32G A52G U53A C54U C87U C95A G136A G140U the “polymerase ribozyme fitness (log ratio)” value was no more than -4.2. With A26G C35G C57A G81C C87G the “polymerase ribozyme fitness (log ratio)” value was no more than -4.2. For A26C C63U C85A A120U, the “polymerase ribozyme fitness (log ratio)” value was -3.53. For A26U A29U U55A A91U U148G, the “polymerase ribozyme fitness (log ratio)” value was no more than -4.2. In the case of A26U A39C U45A A60C U61G G83C U102C U111G, the “polymerase ribozyme fitness (log ratio)” value is reported as no more than -4.2. For A26C C36G, the “polymerase ribozyme fitness (log ratio)” value was no more than -4.2. For G25U G48C U102C G117A G133C U135A, the “polymerase ribozyme fitness (log ratio)” value was no more than -4.2. For A26G A39U G48C A60C A73C G92U U104G U135G U148C, the “polymerase ribozyme fitness (log ratio)” value was no more than -4.2. For A26G U77A C87U A89C, the “polymerase ribozyme fitness (log ratio)” value was no more than -4.2. With A26G G46A G48C C51U G71C C103U A120G C149G the “polymerase ribozyme fitness (log ratio)” value was no more than -4.2. With G25U U55G A122U the “polymerase ribozyme fitness (log ratio)” value was -3.1. In the case of G25U C36U A41C C76U C123G U144G U145A, the “polymerase ribozyme fitness (log ratio)” value is reported as no more than -4.2. In the case of G25U A26U C32U U90A C96A A120G G126U, the “polymerase ribozyme fitness (log ratio)” value is reported as no more than -4.2. For A26G A52U A137G U145G, the “polymerase ribozyme fitness (log ratio)” value was no more than -4.2. For A26G A60C G65U C76G U139A A142C, the “polymerase ribozyme fitness (log ratio)” value was no more than -4.2. For G25U G88C G141C, the “polymerase ribozyme fitness (log ratio)” value was no more than -4.2. With G25U G48C A52G C54G C57A A60G C96G U101G the “polymerase ribozyme fitness (log ratio)” value was no more than -4.2. With A26C A49C C85U C96U C99G the “polymerase ribozyme fitness (log ratio)” value was no more than -4.2. With A26U A52G C85U the “polymerase ribozyme fitness (log ratio)” value was -1.69. In the case of G25U G46C G50C A66G U90C G100C U104A U146C G152A, the “polymerase ribozyme fitness (log ratio)” value is reported as no more than -4.2. With A26C A28U A47C the “polymerase ribozyme fitness (log ratio)” value was no more than -4.2. With G25U A64U C87G G143U the “polymerase ribozyme fitness (log ratio)” value was no more than -4.2. With A26G C63A G80A C85G C87G C114A A137U the “polymerase ribozyme fitness (log ratio)” value was no more than -4.2. In the case of A26G C32A G62U A66C C93U C95G C125A U148A, the “polymerase ribozyme fitness (log ratio)” value is reported as no more than -4.2. With A26G G59A G84U G86C C105U C116G A138C the “polymerase ribozyme fitness (log ratio)” value was no more than -4.2. With A26C C57A A121C U148G the “polymerase ribozyme fitness (log ratio)” value was no more than -4.2. With A26C C57U A91C the “polymerase ribozyme fitness (log ratio)” value was no more than -4.2. In the case of A26C C85A G94C, the “polymerase ribozyme fitness (log ratio)” value is reported as -1.83. For G25U A52C U53A U56G U77A A91U U144A U148C, the “polymerase ribozyme fitness (log ratio)” value was no more than -4.2. In the case of G25U A39C C87U C118U, the “polymerase ribozyme fitness (log ratio)” value is reported as no more than -4.2. For G25C G42A G58U C87A C116A, the “polymerase ribozyme fitness (log ratio)” value was no more than -4.2. In the case of A26U A47C A49C G80C C85A A113G A150U, the “polymerase ribozyme fitness (log ratio)” value is reported as no more than -4.2. In the case of A26G C69G A106C C108U, the “polymerase ribozyme fitness (log ratio)” value is reported as no more than -4.2. In the case of A26G G42A A49G A52G C96U, the “polymerase ribozyme fitness (log ratio)” value is reported as no more than -4.2.

From the RNAGym collection of RNA variant scans (doi:10.1073/pnas.2313332121)
